By IC50 is meant the dose at which the fit gives 50% viability; where the fit passes the top or lowest dose, that dose stands as a limit. AUC is the area under the same curve over the 256-fold range up to the top dose, as a fraction; it is 1 without any effect and falls as sensitivity rises. For some of these results: Any top dose called inferred is not printed in the source and was worked back from the curve model. For some of these results: An entry number marks a drug with two screens in the source, which often give different values.
Columns and labels:
Assay in all cases: Viability of human cancer cell lines after 72 h of drug (GDSC screen)
JNK-9L = compound: Fc1cc(-c2ccnc(Nc3ccc(-n4cnc(N5CCOCC5)n4)cc3)n2)cc(N2CCOCC2)c1 [JNK-9L]; settings: top dose 5.12 µM; top dose inferred
Description: (§1)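 Human cancer cell lines in 384-well plates, medium with 10% serum, drug for 72 h over a 256-fold dose range (nine 2-fold or five 4-fold steps up to the top dose). Adherent lines were fixed and stained with the nucleic acid dye Syto60, suspension lines read with resazurin; signal relative to control wells, capped at 0 and 100%. One two-parameter sigmoid per drug and line, fitted in a mixed model over all curves with the slope shared within a line.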

OSU-03012 = compound: NCC(=O)Nc1ccc(-n2nc(C(F)(F)F)cc2-c2ccc3c(ccc4ccccc43)c2)cc1 [OSU-03012]; settings: top dose 16 µM; top dose inferred
Description: as §1

QS11 = compound: OC[C@H](Cc1ccccc1)Nc1nc(Oc2ccc3c(c2)CCC3)nc2c1ncn2Cc1ccc(-c2ccccc2)cc1 [QS11]; settings: top dose 10.24 µM
Description: as §1

CUDC-101 = compound: C#Cc1cccc(Nc2ncnc3cc(OC)c(OCCCCCCC(=O)NO)cc23)c1 [CUDC-101]; settings: top dose 5.12 µM; top dose inferred
Description: as §1

AC220 = compound: CC(C)(C)c1cc(NC(=O)Nc2ccc(-c3cn4c(n3)sc3cc(OCCN5CCOCC5)ccc34)cc2)no1 [AC220]; settings: top dose 1.024 µM; top dose inferred
Description: as §1

5-Fluorouracil = compound: O=c1[nH]cc(F)c(=O)[nH]1 [5-Fluorouracil]; settings: top dose 32 µM; top dose inferred
Description: as §1

RDEA119 = compound: COc1cc(F)c(F)c(Nc2ccc(I)cc2F)c1NS(=O)(=O)C1(C[C@H](O)CO)CC1 [RDEA119]; settings: top dose 5 µM, top dose inferred
Description: as §1

Cell Line | AUC (JNK-9L) | IC50 (JNK-9L) [nM] | AUC (OSU-03012) | IC50 (OSU-03012) [nM] | AUC (QS11) | IC50 (QS11) [nM] | AUC (CUDC-101) | IC50 (CUDC-101) [nM] | AUC (AC220) | IC50 (AC220) [nM] | AUC (5-Fluorouracil) | IC50 (5-Fluorouracil) [nM] | AUC (RDEA119; screen: GDSC drug entry 1014) | IC50 (RDEA119; screen: GDSC drug entry 1014) [nM] | AUC (RDEA119; screen: GDSC drug entry 1526) | IC50 (RDEA119; screen: GDSC drug entry 1526) [nM]
EB2 (Burkitt lymphoma, suspension) | 0.614 | 638 | 0.75 | 4800 | 0.959 | > 10200 | 0.412 | 188 | 0.93 | > 1020 | 0.542 | 2570 | 0.99 | > 5000 | 0.984 | > 5000
EBC-1 (lung squamous cell carcinoma, adherent) | 0.733 | 1630 | 0.827 | 11500 | 0.976 | > 10200 | 0.725 | 1540 | 0.983 | > 1020 | 0.966 | > 32000 | 0.558 | 459 | 0.622 | 710
EC-GI-10 (oesophagus, adherent) | 0.797 | 2380 | 0.972 | > 16000 | 0.984 | > 10200 | 0.684 | 1040 | 0.989 | > 1020 | 0.948 | > 32000 | 0.618 | 659 | 0.789 | 2180
ECC10 (stomach, suspension) | 0.554 | 454 | 0.681 | 3290 | 0.903 | > 10200 | 0.7 | 1200 | 0.97 | > 1020 | 0.872 | > 32000 | 0.769 | 1970 | 0.728 | 1440
EFM-19 (breast, adherent) | 0.602 | 704 | 0.727 | 6300 | 0.975 | > 10200 | 0.439 | 201 | 0.947 | > 1020 | 0.914 | > 32000 |  |  | 0.974 | > 5000
EFM-192A (breast, adherent) | 0.283 | 71.7 | 0.521 | 1150 | 0.764 | 4110 | 0.677 | 1060 | 0.98 | > 1020 | 0.931 | > 32000 | 0.959 | > 5000 | 0.981 | > 5000
EFO-21 (ovary, adherent) | 0.662 | 1100 | 0.84 | > 16000 | 0.941 | > 10200 | 0.786 | 3350 | 0.968 | > 1020 | 0.854 | > 32000 | 0.908 | > 5000 | 0.941 | > 5000
EFO-27 (ovary, adherent) | 0.517 | 360 | 0.704 | 4390 | 0.938 | > 10200 | 0.509 | 340 | 0.978 | > 1020 | 0.664 | 6440 | 0.633 | 799 | 0.849 | > 5000
EGI-1 (biliary tract, adherent) | 0.614 | 725 | 0.735 | 5860 | 0.982 | > 10200 | 0.785 | 2930 | 0.976 | > 1020 | 0.953 | > 32000 | 0.666 | 1050 | 0.636 | 834
EJM (lymphoid neoplasm, semi-adherent) | 0.562 | 459 | 0.868 | 10800 | 0.99 | > 10200 | 0.356 | 137 | 0.982 | > 1020 | 0.858 | 19800 | 0.981 | > 5000 | 0.992 | > 5000
EM-2 (chronic myeloid leukaemia, suspension) | 0.629 | 765 | 0.825 | 11300 | 0.961 | > 10200 | 0.515 | 354 | 0.976 | > 1020 | 0.734 | 10300 | 0.494 | 299 | 0.517 | 350
EN (endometrium, adherent) | 0.762 | 2300 | 0.841 | 15700 | 0.982 | > 10200 | 0.607 | 683 | 0.959 | > 1020 | 0.857 | > 32000 | 0.961 | > 5000 |  | 
ES1 (Ewing sarcoma, adherent) | 0.656 | 860 | 0.37 | 439 | 0.629 | 1450 | 0.362 | 134 | 0.968 | > 1020 | 0.423 | 1240 | 0.986 | > 5000 | 0.985 | > 5000
ES3 (Ewing sarcoma, adherent) | 0.66 | 914 | 0.743 | 5180 | 0.809 | 5670 | 0.493 | 306 | 0.829 | 681 | 0.891 | > 32000 | 0.973 | > 5000 | 0.963 | > 5000
ES4 (Ewing sarcoma, adherent) | 0.466 | 255 | 0.55 | 1400 | 0.854 | 10000 | 0.813 | 3300 | 0.973 | > 1020 | 0.654 | 5720 | 0.875 | > 5000 | 0.94 | > 5000
ES5 (Ewing sarcoma, adherent) | 0.722 | 1520 | 0.713 | 4410 | 0.933 | > 10200 | 0.276 | 66.5 | 0.926 | > 1020 | 0.681 | 6940 | 0.947 | > 5000 | 0.979 | > 5000
ES6 (Ewing sarcoma, adherent) | 0.552 | 457 | 0.598 | 1990 | 0.863 | > 10200 | 0.616 | 722 | 0.974 | > 1020 | 0.735 | 11200 | 0.98 | > 5000 | 0.952 | > 5000
